± gives the standard deviation. Whole data set: some 5,500 sequences, median “pre-steady-state target cleavage rate” near 0.1, cut for the highest 2% near 0.64. The entries are a selection whose mix differs from that of the whole data set.
These sequences were tested on MIWI (PIWIL1) piRISC loaded with piRNA #2 (30 nt) (assay: pre-steady-state target cleavage rate (min^-1); MIWI and MILI are mouse PIWI proteins and EfPiwi is from a freshwater sponge; tags in brackets are library labels; higher = faster piRNA-guided slicing of the target). Conditions: guide: piRNA #2 5'p-UUAGGUAACCCAGUAGAUCCAGAGGAAUUC; auxiliary factor: 500 nM mouse GTSF1.
Method in brief: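 Sequencing of uncleaved targets, normalised to depth and to weakly complementary targets, was the readout of this Cleave-'n-Seq assay. A transcribed, DNA-blocked target RNA library (0.1 nM) was mixed with 1 nM active affinity-purified piRISC carrying one synthetic guide, with or without 500 nM GTSF1 partner protein, in HEPES–potassium acetate buffer at 33 °C for 0–8 or 0–960 min. Three trials were pooled, k3 was capped at 0.0001 min^-1, and a burst-and-steady-state fit gave the pre-steady-state cleavage rate.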

Sequence | pre-steady-state target cleavage rate
CUUAUCCUCUGGAUCUACUGGGUUAACCUAA | 0.418 ± 0.05
CUUAAGGAGUGGAUCUACUUGGUUACCUAA | 0.0107 ± 0.0047
CUUAAGGAGAGGAUCAACUGGGUUACGUAA | 0.00518 ± 0.0036
CUAUUCCUCUGGAACAACUGGGUUACCUAA | 0.425 ± 0.044
GAAUUCCUCUGGAUCUACUGGGUUACCUCA | 0.278 ± 0.054
CUUAUCCUGUCGAUCUACUGGGUUACCUAA | 0.395 ± 0.03
CUUAAGGUCUGGAUCUACGGGGUUACCUAA | 0.0508 ± 0.0073
CUUAACGUCUGGAUGUACUGGGUUACCUAA | 0.075 ± 0.033
CUAUUCCACUGGAUCUACUGGGUUACCUUA | 0.456 ± 0.062
CUUAAGGUCUGGAUCUAGUGCGUUACCUAA | 0.0306 ± 0.0086
CUUAACGUCUGGAUCAACUGGGUUACCUAA | 0.145 ± 0.017
CUAUUCCUCUGGAUCUUCUGGGUUACCAAA | 0.244 ± 0.047
CAAAUCCUCUGGAUCUACUGGGAUACCUAA | 0.384 ± 0.054
CUUAACCUCUGGAUCAUACUGGGUUACCUAA | 0.00828 ± 0.0033
CAAUUCCUCUGGAUCUACUGGCUUACCAAA | 0.0687 ± 0.028
CUAUACCUCUGGAACUACUGGGUUACCUAA | 0.468 ± 0.045
CUUAAGGACAGGAUGUACUGGGUUACCUAA | 0.0478 ± 0.028
CUAUUCCUCUGGAUCUACUGGGUUACCAAA | 0.477 ± 0.061
CUUAACCUCUGGUUCUACUGGGUUACGUAA | 0.33 ± 0.031
CAAUUCCGCUGGAUCUACUGGGUUACCUAA | 0.535 ± 0.052
CUAUUCCUCUGGAUCUACUGGGUGACCUAA | 0.285 ± 0.031
CAAUUCCUCUGGAACUACUGCGUUACCUAA | 0.376 ± 0.037
CUUAACCUCUGGAUCUACUGGGUAACGUAA | 0.167 ± 0.025
CUUAACCUCUGGAUCUACUGGAUUACCUAA | 0.259 ± 0.029

Sequence | pre-steady-state target cleavage rate
CUUUUCCUCUGGCUCUACUGGGUUACCUAA | 0.579 ± 0.036
CUUAAGGAGACCUAGUAGACGGUUACCUAA | < 0.0001
CUUAUCCUCUGGAUCUACUGGGUUAGGAAA | 0.00867 ± 0.0047
CAAUACCUCUGGAUCUAGUGGGUUACCUAA | 0.138 ± 0.022
CUUAUCCUCUGGAUCUACACCGUUACCUAA | 0.105 ± 0.015
CUAUUCCUCUGGAUGUUCUGGGUUACCUAA | 0.336 ± 0.04
CUUAAGGUCUGGAUCUACUGCGUAACCUAA | 0.0411 ± 0.021
CAAUUCCACUGGAUCUACUGGGUUACCUAA | 0.551 ± 0.069
CUUAAGGUCUGGGUCUACUGGGUUACCUAA | 0.275 ± 0.027
CUUAACCUCUGGUUCAACUGGGUUACCUAA | 0.455 ± 0.045
CUUAUCCUGUGGAUCUACUGGGUUUCCUAA | 0.181 ± 0.035
CUUAAGCUCUCGAUCUACUGGGAUACCUAA | 0.257 ± 0.023
CUUAAGGAGUGGAUUUACUGGGUUACCUAA | 0.0327 ± 0.0098
CAAUACCUCUGGAUCUUCUGGGUUACCUAA | 0.329 ± 0.046
CUAUACCUCUGCAUCUACUGGGUUACCUAA | 0.439 ± 0.042
CUAUUCCUCUGGUUGUACUGGGUUACCUAA | 0.505 ± 0.027
CUUUUCCUGUGGAUCUACUCGGUUACCUAA | 0.0672 ± 0.009
GAAUUCCUCUGGAUCAACUGGGUUUCCUAA | 0.248 ± 0.057
GAAUUCCUCUCGAUCUACUGGGUAACCUAA | 0.293 ± 0.037
CUUUUCCACUGGAUCUACUGGGAUACCUAA | 0.408 ± 0.03
CUAUUCCUGACGAUCUACUGGGUUACCUAA | 0.133 ± 0.023
GAUUUCCUCUGGAUCUAGUGGGUUACCUAA | 0.0505 ± 0.012
CUUAUCCUCUGGAUCUACUGGGUUACCCUAA | 0.327 ± 0.1
GAAUUCCUCUGGAUCUACUGGGUUAGCUAA | 0.519 ± 0.062

Sequence | pre-steady-state target cleavage rate
CAAUUCCUCUGGAUCUACUGGGUUUCGUAA | 0.281 ± 0.058
CUUAAGGACAGGAUCUACUGGCUUACCUAA | 0.0138 ± 0.013
CUAUUCCUCUGGAUCUACAGGGUUACCUUA | 0.214 ± 0.024
CUUAACCUCUGGAUCCUACUGGGUUACCUAA | 0.0614 ± 0.0092
CAAUUCCUCAGGAUCUACUGGGUAACCUAA | 0.336 ± 0.056
CUUAAGGAGACCAUCUACUGCGUUACGUAA | 0.00341 ± 0.002
CUUAAGGAGAGGUAUCUACUGGGUUACCUAA | 0.00502 ± 0.0035
CAAAUUCCUCUGGAUCUACUGGGUUACCUAA | 0.44 ± 0.05
CUUAAGCUCUCGAUCUACAGGGUUACCUAA | 0.185 ± 0.012
CUUUACCUCUGGAUCUACUGGGUUACCUAA | 0.255 ± 0.035
CUUAAGGACUGGUUCUACUGGGUUACCUUA | 0.028 ± 0.021
CAAUUUCUCUGGAUCUACUGGGUUACCUAA | 0.388 ± 0.056
CAAUUCCUCUGGAUGAACUGGGUUACCUAA | 0.315 ± 0.049
CUUUUCCUCUGGUUCUACUGGGUUACCAAA | 0.217 ± 0.045
CUUAAGGAGACGAUCUAGUGCGUUACCUAA | 0.00344 ± 0.0032
CUUAAGCUCUGGAACUACUGGGUUUCCUAA | 0.0538 ± 0.011
CUUAACCUCUGGAUUUACUGGGUUACCUAA | 0.411 ± 0.037
CUUAAGCUCUGGAUCUACUCGGUUACCUAA | 0.0434 ± 0.01
CUUAAGGACUGAAUCUACUGGGUUACCUAA | 0.0543 ± 0.027
CUUAACCUCUGGUUCUACUGGGUUACCAAA | 0.273 ± 0.069
CAAUUCCACUGGAUCUACUGGGUUACCUUA | 0.506 ± 0.076
CUUAACCUCUGGAUCUACUGGGUUAUCUAA | 0.261 ± 0.03
CUUUUCCUCUGGAUCUCCUGGGUUACCUAA | 0.199 ± 0.036
CUUAAGGAGUGGAUCUACUGGGAUACGUAA | 0.0243 ± 0.013
